Experimental data: patent US20230272055A1, “ANTI-MUTANT CALRETICULIN (CALR) ANTIBODIES AND USES THEREOF” (Incyte Corporation, priority 2021, published 2023)

Assays:
[1] = biological target: T1, recombinant MBP-mutCALR Type 1 fusion protein (Homo sapiens, UniProt P27797, DEL40-40); experiment: Biacore SPR binding kinetics, Experiment 1; conditions: Biacore 8K, 25° C., 1:1 binding model
T1 construct: His6 (N); purchased Cepter (cepterbiopartners.com), custom made
Procedure: The amino acid sequence of recombinant MBP-mutCALR Type 1 fusion protein used in Experiments 1 and 2 is:
Experiment 1: Recombinant MBP-mutCALR Type 1 fusion protein was custom made at Cepter (cepterbiopartners.com). Data for the interaction of antibodies with recombinant MBP-mutCALR Type 1 fusion protein were collected at 25° C. on a Biacore 8K instrument (Cytiva, Marlborough, Mass.), and all reagents were obtained from Cytiva unless otherwise specified. The experiments were conducted using Tris-buffered saline (pH 7.2), 0.005% Surfactant P20, 1 mM CaCl2) as running buffer. To prepare the capture surfaces, anti-human IgG (Fc) antibodies (Product #29234600) was amine-coupled onto a CM4 chip (Product #BR100534) under standard conditions using an Amine Coupling Kit (Product #BR100050). Anti-mutCALR antibodies were captured onto the chip surface by injecting over flow cell 2 only at a flow rate of 30 μL/min for 30 seconds. […] The kinetics parameters were obtained by applying 1:1 binding model to fit the data from multiple-cycle injection experiments using Biacore Insight Evaluation software.

[2] = test system: MPL-mutCALR cells (BaF3 cells stably expressing human MPL and human mutCALR); experiment: Flow cytometry binding to cell surface MPL and mutCALR (GMFI, four parameter fit); conditions: four parameter curve fitting
Procedure: To assess binding of CALR antibodies to cell surface CALR, parental BaF3 (DSMZ) cells or BaF3 cells stably expressing only human MPL or both human MPL (Uniprot Number: P40238-1) and human mutCALR Type 1 and Type 2 were used. On the day of the assay, cells were washed and resuspended in assay buffer. Approximately 200,000 cells/well were added to 96-well plates and stained with the indicated concentration of antibodies for 30 minutes on ice. Cells were then washed and stained with goat anti-human secondary conjugated to R-phycoerythrin (R-PE) (Jackson Immuno Research Laboratories) for 30 minutes on ice. The cells were then washed and analyzed by flow cytometry. Geometric Mean Fluorescence Intensity (GMFI) of cell binding was graphed and EC50, hill slope, and area under the curve (AUC) were determined after four parameter curve fitting using GraphPad Prism Software (version 7.04).

[3] = biological target: T1, recombinant MBP-mutCALR Type 1 fusion protein; experiment: Biacore SPR binding kinetics, Experiment 2 (parental and variant antibodies); conditions: Biacore 8K, 25° C., 1:1 binding model

| ka [1] [M⁻¹ s⁻¹] | kd [1] [s⁻¹] | ka [3] [M⁻¹ s⁻¹] | kd [3] [s⁻¹] | Molecule | MPL-mutCALR Hill Slope [2] |
| --- | --- | --- | --- | --- | --- |
| 2.27e+06 | 0.00581 | – | – | 34 (antibody) heavy: QVQLVQSGAEVKKPGATVKISCKVSGYSFTDYFIHWVQQAPGKGLAWVGLVDPEDGETIYAEKFQGRVTITADTSTDTAYMELSSLRSEDTAVYYCATPGGILTDPDAFDIWGQGTMVTVSSASTKGPSVFPLAPSSKSTSGGTAALGCLVKDYFPEPVTVSWNSGALTSGVHTFPAVLQSSGLYSLSSVVTVPSSSLGTQTYICNVNHKPSNTKVDKRV[omitted - human IgG1 Fc] light: QSALTQPASVSGSPGQSITISCTGTSSDVGGYNYVSWYQQHPGKAPKLMIYEVSNRPSGVSNRFSGSKSGNTASLTISGLQAEDEADYYCSSYTSSSTYVFGTGTKVTVLGQPKAAPSVTLFPPSSEELQANKATLVCLISDFYPGAVTVAWKADSSPVKAGVETTTPSKQSNNKYAASSYLSLTPEQWKSHRSYSCQVTHEGSTVEKTVAPTECS | 0.53 |
| 1.66e+06 | 0.00811 | – | – | 41 (antibody) heavy: EVQLVQSGAEVKKPGASVKVSCKVSGYTLTELSMHWVRQAPGKGLEWMGLVDPEDGETIYAQKFQGRVTMTEDTSTDTAYMELSSLRSEDTAVYYCAREEWSGDGDDAFDIWGQGTMVTVSSASTKGPSVFPLAPSSKSTSGGTAALGCLVKDYFPEPVTVSWNSGALTSGVHTFPAVLQSSGLYSLSSVVTVPSSSLGTQTYICNVNHKPSNTKVDKRV[omitted - human IgG1 Fc] light: QSVLTQPPSVSAAPGQKVTISCSGSSSNIGSYSVSWYQQLPGTAPKLLIYDNNKRPSGIPDRFSGSNSGTSATLGITGLQTGDEADYYCGTWDSSLSAWVFGGGTKLTVLGQPKAAPSVTLFPPSSEELQANKATLVCLISDFYPGAVTVAWKADSSPVKAGVETTTPSKQSNNKYAASSYLSLTPEQWKSHRSYSCQVTHEGSTVEKTVAPTECS | 0.17 |

Further lines, the molecule ahead of its results:

| Molecule | ka [1] [M⁻¹ s⁻¹] | kd [1] [s⁻¹] | ka [3] [M⁻¹ s⁻¹] | kd [3] [s⁻¹] | MPL-mutCALR Hill Slope [2] |
| --- | --- | --- | --- | --- | --- |
| 35 (antibody) heavy: QVQLVQSGAEVKKPGATVKISCKVSGYSFTDYFIHWVQQAPGKGLAWVGLVDPEDGETIYAERFQGRVTITADTSTDTAYMELSSLRSEDTAVYYCATPGGILTDPDAFDIWGQGTMVTVSSASTKGPSVFPLAPSSKSTSGGTAALGCLVKDYFPEPVTVSWNSGALTSGVHTFPAVLQSSGLYSLSSVVTVPSSSLGTQTYICNVNHKPSNTKVDKRV[omitted - human IgG1 Fc] light: QSALTQPASVSGSPGQSITISCTGTSSDVGGYNYVSWYQQHPGKAPKLMIYEVSNRPSGVSNRFSGSKSGNTASLTISGLQAEDEADYYCSSYTSSSTPYVFGTGTKVTVLGQPKAAPSVTLFPPSSEELQANKATLVCLISDFYPGAVTVAWKADSSPVKAGVETTTPSKQSNNKYAASSYLSLTPEQWKSHRSYSCQVTHEGSTVEKTVAPTECS | 2.13e+06 | 0.00599 | – | – | 0.43 |
| 53 (antibody) heavy: QVQLVQSGAEVKKPGASVKVSCKVSGYTLTELSMHWVRQAPGKGLEWMGGFDPEDGETIYAQKFQGRVTMTEDTSTDTAYMELSSLRSEDTAVYYCATDIQGLAEFDYWGQGTLVTVSSASTKGPSVFPLAPSSKSTSGGTAALGCLVKDYFPEPVTVSWNSGALTSGVHTFPAVLQSSGLYSLSSVVTVPSSSLGTQTYICNVNHKPSNTKVDKRV[omitted - human IgG1 Fc] light: QSALTQPRSVSGSPGQSVTISCTGTNTDVGAYIDVSWYQQHPGKAPKLIIYDVSKWPSGVPDRFSGSKSGNTASLTISGLQAEDEADYYCCSYAGNHSFSFGGGTKVTVLGQPKAAPSVTLFPPSSEELQANKATLVCLISDFYPGAVTVAWKADSSPVKAGVETTTPSKQSNNKYAASSYLSLTPEQWKSHRSYSCQVTHEGSTVEKTVAPTECS | 229000 | 0.00235 | 6.36e+06 | 0.108 | 0.68 |
